Read counts are not given, so values of variants with three or more changes are uncertain.
B1: CPEB3 Ribozyme (parent)
chain: UAACAGGGGGCCACAGCAGAAGCGUUCACGUCGCAGCCCCUGUCAGAUUCUGGUGAAUCUGCGAAUUCUGCUGUAUAUCUC

Variants of: B1
Test: self-cleavage, relative activity (ratio to wild type); higher = more cleavage; in vitro, sequencing
Procedure, shortened: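 Barcoded CPEB3 ribozyme mutants, produced by rounds of error-prone PCR, self-cleaved while being transcribed with T7 RNA polymerase for 5 hours at 37°C and during a subsequent 15 min DNase I step before EDTA was added. Sequencing of template-switched cDNA on Illumina gave cleaved and total reads, and DNA sequencing assigned barcodes to variants. Each variant's relative activity is its cleaved/total read fraction divided by the unmutated ribozyme's fraction, averaged across three batches. A variant needed a minimum of 5 reads.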
For G10A A20G C32U A56G A57G U76A, the self-cleavage was 0.03. In the case of G10A A20G U25C U66C G73A A77G, the self-cleavage is reported as 0.04. Variant G10A A20G U26C A57G has a self-cleavage of 0.07. Work on G10A A20G U60C yielded a self-cleavage of 0.23. Variant G10A A20U U25C A45U has a self-cleavage of 0.18. G10A A20U U26C A35G C37U U43C gave a self-cleavage of 0.44. Work on G10A A20U U41A U48C A57G yielded a self-cleavage of 0.08. G10A A20U U43C A57C U78C gave a self-cleavage of 0.06. Work on G10A A21G A28G yielded a self-cleavage of 0.08. G10A A21G A28U U41G U51A A57U U69A showed a self-cleavage of 0.13. Work on G10A A21G A35C U48C G52C yielded a self-cleavage of 0.11. In the case of G10A A21G A35U U41C A45G A56G U72A, the self-cleavage is reported as 0.03. Variant G10A A21G A47G U76A U78C has a self-cleavage of 0.05. For G10A A21G G53C G61A U72C, the self-cleavage was 0.07. With G10A A21G U25A U31A U51C the self-cleavage was 0.05. For G10A A21G U25C U31C U51C U60C, the self-cleavage was 0.03. For G10A A21G U41A A47U U51A A64G U78C, the self-cleavage was 0.04. Variant G10A A21G U41C U60C U74C has a self-cleavage of 0.06. Work on G10A A21G U43C U60C yielded a self-cleavage of 0.14. G10A A21G U69C U72C showed a self-cleavage of 0.16. With G10A A28G A35U U51C the self-cleavage was 0.11. With G10A A28G A45G U60C the self-cleavage was 0.05. For G10A A28G G30C U48C, the self-cleavage was 0.08. G10A A28G G33A U54C showed a self-cleavage of 0.04. G10A A28G U48C U60A gave a self-cleavage of 0.04. Work on G10A A28G U72C yielded a self-cleavage of 0.38. Work on G10A A28U A47G U76A yielded a self-cleavage of 0.09. G10A A28U U41C U49C gave a self-cleavage of 0.12. G10A A35C U80C gave a self-cleavage of 0.14. G10A A35G C39U showed a self-cleavage of 0.38. Work on G10A A35G C44U yielded a self-cleavage of 0.21. Work on G10A A35G U41G yielded a self-cleavage of 0.17. For G10A A35U A47G A64U U74C, the self-cleavage was 0.05. G10A A45C G53A A56G U69C gave a self-cleavage of 0.1. Variant G10A A47G A56G A75U U80C has a self-cleavage of 0.06. With G10A A47G U76A U80A the self-cleavage was 0.33. G10A A47G U78A showed a self-cleavage of 0.06. G10A A56G G70C showed a self-cleavage of 0.19. With G10A A56U A57G the self-cleavage was 0.06. For G10A A56U U67C, the self-cleavage was 0.06. Variant G10A A57G U76C has a self-cleavage of 0.22. With G10A A64G U72A the self-cleavage was 0.05. G10A A64U U72A showed a self-cleavage of 0.05. G10A C11A U26A U48C U69C U72G gave a self-cleavage of 0.04. Variant G10A C11G C59U A64C has a self-cleavage of 0.06. Work on G10A C12A U25C U67A yielded a self-cleavage of 0.31. For G10A C12U A15G A21G A64G U78A, the self-cleavage was 0.05. G10A C12U A28G A35G U48C C62U gave a self-cleavage of 0.09. G10A C14U A20G A28G A35G G42C G70A gave a self-cleavage of 0.04. Work on G10A C14U A20G U51C G52A yielded a self-cleavage of 0.07. G10A C14U A21G showed a self-cleavage of 0.06. G10A C14U C50G A56G U69C showed a self-cleavage of 0.13. Work on G10A C14U U25C A56G U58A yielded a self-cleavage of 0.13. In the case of G10A C17A G30A A57G, the self-cleavage is reported as 0.05. G10A C27A C29U G53A U54G gave a self-cleavage of 0.26. Variant G10A C27A G52C has a self-cleavage of 0.16. G10A C27U A28G A56G C71A showed a self-cleavage of 0.08. For G10A C29G A64U C79U, the self-cleavage was 0.05. In the case of G10A C32U G52A U54C U80C, the self-cleavage is reported as 0.35. G10A C37U A56U U66A showed a self-cleavage of 0.03. G10A C39A G63A gave a self-cleavage of 0.04. G10A C39A U80C showed a self-cleavage of 0.25. With G10A C40A U60C A65G the self-cleavage was 0.14. Work on G10A C50U U60C U69A yielded a self-cleavage of 0.24. Work on G10A C68A G70C yielded a self-cleavage of 0.05. G10A C71U U72C gave a self-cleavage of 0.07. Work on G10A G19A U31A A45G U72C C79U yielded a self-cleavage of 0.02. In the case of G10A G19C U43C U58C U74C C79U, the self-cleavage is reported as 0.03. In the case of G10A G24A A35U U72A, the self-cleavage is reported as 0.1. Work on G10A G24A U54C U72A U80C yielded a self-cleavage of 0.1. In the case of G10A G30A U41A U43C G55A, the self-cleavage is reported as 0.06. Work on G10A G30A U43G yielded a self-cleavage of 0.04. G10A G33A U60A A64U U67C U80C showed a self-cleavage of 0.04. For G10A G36A A56G, the self-cleavage was 0.16. Work on G10A G36A U43C yielded a self-cleavage of 0.05. Variant G10A G46U A64G A65G has a self-cleavage of 0.14. For G10A G52C G73A, the self-cleavage was 0.45. Variant G10A G52C G73A A77G has a self-cleavage of 0.51. G10A U25A A65G U69C gave a self-cleavage of 0.04. In the case of G10A U25A U31C U41C, the self-cleavage is reported as 0.18. G10A U25A U54A gave a self-cleavage of 0.32. Work on G10A U25A U54A C62G yielded a self-cleavage of 0.09. Work on G10A U25A U60C U66A A75U yielded a self-cleavage of 0.28.
